In US11618753B2 (priority 2018, dated 2023) one finds IC50 data, which are given here for 18 molecules.

Counter-ions that a name gives are not always drawn.

In the test the test system is MLKL phosphorylation, HT29-L23 human colorectal adenocarcinoma cells. Kind of test: cells. The note with it: read-out: pMLKL HCS Cell Assay (IC50, uM).
In the case of `COc1ncc(-c2cc(C(F)(F)F)c3c(N)ncnn23)cc1C(=O)N[C@@H]1CN(C(=O)OCCC(F)(F)F)C[C@@H]1F` [Example 1444, 3,3,3-trifluoropropyl (3R,4S)-3-{5-[4-amino-5-(trifluoromethyl)pyrrolo[2,1-f][1,2,4]triazin-7-yl]-2-methoxypyridine-3-amido}-4-fluoropyrrolidine-1-carboxylate], the concentration for half-maximal inhibition (IC50) (as a rule, the point on the concentration scale where inhibition reaches its midpoint) amounted to 0.0048 µM.

Turning to `CCO/N=C1\CCC(NC(=O)c2cc(-c3cc(C(F)(F)F)c4c(N)ncnn34)cnc2OC)C1` (stereo not drawn) [Example 1683, (E)-5-(4-amino-5-(trifluoromethyl)pyrrolo[2,1-f][1,2,4]triazin-7-yl)-N-(3-(ethoxyimino)cyclopentyl)-2-methoxynicotinamide], the IC50 was found to be 0.188 µM.

Turning to `Cc1cc(F)c(-c2cc(C(F)(F)F)c3c(N)ncnn23)cc1C(=O)N[C@@H]1CN(C(=O)c2cc(C#N)ccc2F)C[C@@H]1F` [Example 811, 5-[4-amino-5-(trifluoromethyl)pyrrolo[2,1-f][1,2,4]triazin-7-yl]-N-[(3R,4S)-1-(5-cyano-2-fluorobenzoyl)-4-fluoropyrrolidin-3-yl]-4-fluoro-2-methylbenzamide], the IC50 amounted to 0.023 µM.

Consider `Cc1ncc(-c2cc(C(F)(F)F)c3c(N)ncnn23)cc1C(=O)N1CCC[C@@H](Cc2ccc(F)cc2)C1` [Example 172, 7-{5-[(3S)-3-[(4-fluorophenyl)methyl]piperidine-1-carbonyl]-6-methylpyridin-3-yl}-5-(trifluoromethyl)pyrrolo[2,1-f][1,2,4]triazin-4-amine], for which the 50% inhibitory concentration (IC50) is 0.03 µM.

With `Cc1cc(F)c(-c2cc(C(F)(F)F)c3c(N)ncnn23)cc1C(=O)N[C@@H]1CN(C(=O)c2ncc(C(F)(F)F)cc2F)C[C@@H]1F` [Example 850, 5-[4-amino-5-(trifluoromethyl)pyrrolo[2,1-f][1,2,4]triazin-7-yl]-4-fluoro-N-[(3R,4S)-4-fluoro-1-[3-fluoro-5-(trifluoromethyl)pyridine-2-carbonyl]pyrrolidin-3-yl]-2-methylbenzamide], the IC50 came out at 0.248 µM.

Consider `COc1ncc(-c2cc(Cn3cnnn3)c3c(N)ncnn23)cc1C(=O)N[C@@H]1CN(C(=O)C2CC(F)(F)C2)C[C@@H]1F` [Example 1710, 5-(5-((1H-tetrazol-1-yl)methyl)-4-aminopyrrolo[2,1-f][1,2,4]triazin-7-yl)-N-((3R,4S)-1-(3,3-difluorocyclobutane-1-carbonyl)-4-fluoropyrrolidin-3-yl)-2-methoxynicotinamide], for which the IC50 came to 0.049 µM.

In the case of `Nc1ncnn2c(-c3cccc(C(=O)N[C@@H]4CN(C(=O)C5CC(F)(F)C5)C[C@@H]4F)c3)cc(C(F)(F)F)c12` [Example 108, 3-[4-amino-5-(trifluoromethyl)pyrrolo[2,1-f][1,2,4]triazin-7-yl]-N-[(3R,4S)-1-(3,3-difluorocyclobutanecarbonyl)-4-fluoropyrrolidin-3-yl]benzamide], the IC50 stood at 0.053 µM.

With `COc1ncc(-c2cc(C(F)(F)F)c3c(N)ncnn23)cc1C(=O)N[C@@H]1CN(C(=O)C(C)(C)F)C[C@@H]1F` [Example 347, 5-[4-amino-5-(trifluoromethyl)pyrrolo [2,1-f][1,2,4]triazin-7-yl]-N-[(3R,4S)-4-fluoro-1-(2-fluoro-2-methylpropanoyl)pyrrolidin-3-yl]-2-methoxypyridine-3-carboxamide, TFA], the half-maximal inhibitory concentration (IC50) stood at 0.026 µM.

Consider `Nc1ncnn2c(-c3cc(C(=O)N[C@@H]4CN(C(=O)C5CC(F)C5)C[C@@H]4F)c(Cl)cc3F)cc(C(F)(F)F)c12` (stereo partly drawn) [Example 888, 5-[4-amino-5-(trifluoromethyl)pyrrolo[2,1-f][1,2,4]triazin-7-yl]-2-chloro-4-fluoro-N-[(3R,4S)-4-fluoro-1-(3-fluorocyclobutanecarbonyl)pyrrolidin-3-yl]benzamide], for which the IC50 came out at 0.0022 µM.

Turning to `Nc1ncnn2c(-c3ccc(F)c(C(=O)N4CCOC(Cc5ccccc5)C4)c3)cc(C(F)(F)F)c12` (stereo not drawn) [Example 260, 7-[3-(2-benzylmorpholine-4-carbonyl)-4-fluorophenyl]-5-(trifluoromethyl)pyrrolo[2,1-f][1,2,4]triazin-4-amine], the IC50 was determined as 0.191 µM.

Regarding `Nc1ncnn2c(-c3cc(F)c(CF)c(C(=O)N[C@@H]4CN(C(=O)C5CCC(F)(F)C5)C[C@@H]4F)c3)cc(C(F)(F)F)c12` (stereo partly drawn) [Example 618, 5-[4-amino-5-(trifluoromethyl)pyrrolo[2,1-f][1,2,4]triazin-7-yl]-N-[(3R,4S)-1-(3,3-difluorocyclopentanecarbonyl)-4-fluoropyrrolidin-3-yl]-3-fluoro-2-(fluoromethyl)benzamide], the IC50 amounted to 0.0023 µM.

With `CCc1c(F)cc(-c2cc(C(F)(F)F)c3c(N)ncnn23)cc1C(=O)N[C@@H]1CN(C(=O)[C@@](C)(O)C(F)(F)F)C[C@@H]1F` [Example 650, 5-[4-amino-5-(trifluoromethyl)pyrrolo[2,1-f][1,2,4]triazin-7-yl]-2-ethyl-3-fluoro-N-[(3R,4S)-4-fluoro-1-[(2R)-3,3,3-trifluoro-2-hydroxy-2-methylpropanoyl]pyrrolidin-3-yl]benzamide], the IC50 stood at 0.0045 µM.

Consider `CC(C)(F)C(=O)N1C[C@H](F)[C@H](NC(=O)c2cc(-c3cc(C(F)(F)F)c4c(N)ncnn34)cc(F)c2Cl)C1` [Example 630, 5-[4-amino-5-(trifluoromethyl)pyrrolo[2,1-f][1,2,4]triazin-7-yl]-2-chloro-3-fluoro-N-[(3R,4S)-4-fluoro-1-(2-fluoro-2-methylpropanoyl)pyrrolidin-3-yl]benzamide], for which the IC50 came out at 0.016 µM.

Consider `COc1ncc(-c2cc(C(F)(F)F)c3c(N)ncnn23)cc1C(=O)NC1CN(C(C)c2nc(Cl)cs2)C[C@@H]1F` (stereo partly drawn) [Example 1399, 5-[4-amino-5-(trifluoromethyl)-pyrrolo[2,1-f][1,2,4]triazin-7-yl]-N-[(3R,4S)-1-[1-(4-chloro-1,3-thiazol-2-yl)ethyl]-4-fluoropyrrolidin-3-yl]-2-methoxypyridine-3-carbox-amide], for which the IC50 is 0.0031 µM.

Take `COc1ncc(-c2ccc3c(NCCO)ncnn23)cc1C(=O)NCC[C@H](O)c1ccc(Cl)cc1` [Example 54]: the IC50 was 0.263 µM.

Regarding `CC(C)(C(=O)N1C[C@H](F)[C@H](NC(=O)c2cccc(-c3cc(C(F)(F)F)c4c(N)ncnn34)c2F)C1)C(F)(F)F` [Example 770, 3-[4-amino-5-(trifluoromethyl)pyrrolo[2,1-f][1,2,4]triazin-7-yl]-2-fluoro-N-[(3R,4S)-4-fluoro-1-(3,3,3-trifluoro-2,2-dimethylpropanoyl)pyrrolidin-3-yl]benzamide], the IC50 was determined as 0.335 µM.

In the case of `Nc1ncnn2c(-c3ccc(F)c(C(=O)NCC[C@H](O)c4ccc(Cl)cc4)c3)cc(C(F)(F)F)c12` [Example 248, 5-[4-amino-5-(trifluoromethyl)pyrrolo[2,1-f][1,2,4]triazin-7-yl]-N-[(3S)-3-(4-chlorophenyl)-3-hydroxypropyl]-2-fluorobenzamide], the IC50 worked out at 0.026 µM.

Take `Cc1ccc(-c2cc(C(F)(F)F)c3c(N)ncnn23)cc1C(=O)N[C@@H]1CN(C(=O)C(C)(C)F)C[C@@H]1F` [Example 1000, 5-[4-amino-5-(trifluoromethyl)pyrrolo[2,1-f][1,2,4]triazin-7-yl]-N-[(3R,4S)-4-fluoro-1-(2-fluoro-2-methylpropanoyl)pyrrolidin-3-yl]-2-methylbenzamide]: the IC50 came to 0.0054 µM.
